A collection of fitness landscapes (doi:10.1016/j.celrep.2020.107928)
The full ranking holds about 81,000 sequences; the median of “one-hybrid fitness for binding NBS DNA” is about -0.1, and the highest 2% start at about 0.36. The list shows a part of the results.

B1: Caulobacter ParB omega fusion; a variant is named by its letters at X, in order, B8GW30 (parent)
chain: MESVVVGEPGMSEGRRGLGRGLSALLGEVDAAPAQAPGEQLGGSREAPIEILQRNPDQPRRTFREEDLEDLSNSIREKGVLQPILVRPSPDTAGEYQIVAGERAWRAAQRAGLKTVPIMVRELDDLAVLEIGIIENVQRADLNVLEEALSYKVLMEKFERTQENIAQTIGKSXSHVANXMRLLXLPDEVQSYLVSGELTAXHARAIAAAADPVALAKQIIEGGLSVRETEALARKAPNLSAGKSKGGRPPRVKDTDTQALESDLSSVLGLDVSIDHRGSTGTLTITYATLEQLDDLCNRLTRGI

Variants of: B1
Assay: one-hybrid fitness for binding NBS DNA (the Noc-binding site; scaled: cognate 1, non-cognate 0); higher = stronger binding
Conditions: with NBS DNA site
How it was run: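 Caulobacter ParB libraries with four specificity codons randomised were screened by bacterial one-hybrid selection in the E. coli USO strain, using a HIS3 reporter whose site lies 19 bp from the promoter. Selection ran for 48 hours at 37°C on M9 lacking histidine, with 0.1 mM IPTG and 5 mM 3-AT. Plasmids were Illumina-sequenced before and after selection, three replicate libraries were pooled, and variants with under 10 reads were dropped. Fitness is the log change in each variant's read ratio to wild type, rescaled against the cognate and non-cognate sites.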

| Variant | one-hybrid fitness for binding NBS DNA |
| --- | --- |
| QLHI | ≤ 0.2 |
| AYVN | ≤ 0.2 |
| QDPD | ≤ 0.2 |
| PAGY | ≤ 0.2 |
| RSDM | ≤ 0.2 |
| VDSR | ≤ 0.2 |
| NIKC | ≤ 0.2 |
| ATRC | ≤ 0.2 |
| PCDC | ≤ 0.2 |
| AMCT | ≤ 0.2 |
| CPRT | ≤ 0.2 |
| TPFG | ≤ 0.2 |
| PAGT | ≤ 0.2 |
| QIWK | ≤ 0.2 |
| EVTF | ≤ 0.2 |
| EKTC | ≤ 0.2 |
| SLER | ≤ 0.2 |
| RCKE | ≤ 0.2 |
| RSEY | ≤ 0.2 |
| RCYE | ≤ 0.2 |
| LQAQ | ≤ 0.2 |
| NRSN | ≤ 0.2 |
| AYAL | ≤ 0.2 |
| PCTF | ≤ 0.2 |
| RNGG | ≤ 0.2 |
| QNQA | ≤ 0.2 |

| Variant | one-hybrid fitness for binding NBS DNA |
| --- | --- |
| MASQ | ≤ 0.2 |
| LFSS | ≤ 0.2 |
| HLRS | ≤ 0.2 |
| NLWR | ≤ 0.2 |
| LRCV | ≤ 0.2 |
| QTVG | ≤ 0.2 |
| RHNG | ≤ 0.2 |
| ESNG | ≤ 0.2 |
| QTPV | ≤ 0.2 |
| HYAW | ≤ 0.2 |
| HPGS | ≤ 0.2 |
| EVSR | ≤ 0.2 |
| SQLR | ≤ 0.2 |
| ITNI | ≤ 0.2 |
| TCLC | ≤ 0.2 |
| CPDG | ≤ 0.2 |
| YIVF | ≤ 0.2 |
| TTVS | ≤ 0.2 |
| WRYS | ≤ 0.2 |
| WVQR | ≤ 0.2 |
| RPCD | ≤ 0.2 |
| QDQT | ≤ 0.2 |
| QMYR | 0.507 |
| NRTG | ≤ 0.2 |
| GLQG | ≤ 0.2 |
| TAVR | ≤ 0.2 |

| Variant | one-hybrid fitness for binding NBS DNA |
| --- | --- |
| IVMG | ≤ 0.2 |
| LGTH | ≤ 0.2 |
| LVEQ | ≤ 0.2 |
| CGAH | ≤ 0.2 |
| NVWG | ≤ 0.2 |
| QVMV | ≤ 0.2 |
| SAHA | ≤ 0.2 |
| SIIG | ≤ 0.2 |
| RKDY | ≤ 0.2 |
| DHCT | ≤ 0.2 |
| WTHQ | ≤ 0.2 |
| QKCI | ≤ 0.2 |
| IHDS | ≤ 0.2 |
| RVRW | ≤ 0.2 |
| HHAA | ≤ 0.2 |
| MERS | ≤ 0.2 |
| RFHS | 0.275 |
| TPTK | ≤ 0.2 |
| WVGT | ≤ 0.2 |
| PGSF | ≤ 0.2 |
| VESL | ≤ 0.2 |
| ATDR | ≤ 0.2 |
| IYPY | ≤ 0.2 |
| KQLR | ≤ 0.2 |
| GCLF | ≤ 0.2 |
| RCGN | ≤ 0.2 |

| Variant | one-hybrid fitness for binding NBS DNA |
| --- | --- |
| VKRS | ≤ 0.2 |
| RCPL | ≤ 0.2 |
| QTSH | 0.321 |
| NITE | ≤ 0.2 |
| IQDR | ≤ 0.2 |
| AKLH | ≤ 0.2 |
| HNTF | ≤ 0.2 |
| HLLP | ≤ 0.2 |
| CAHC | ≤ 0.2 |
| WPTT | ≤ 0.2 |
| RNTF | ≤ 0.2 |
| HALW | ≤ 0.2 |
| MLTN | ≤ 0.2 |
| RWMC | ≤ 0.2 |
| GVQT | ≤ 0.2 |
| QEYR | ≤ 0.2 |
| LTDS | ≤ 0.2 |
| TWLE | ≤ 0.2 |
| QVVM | ≤ 0.2 |
| SQYW | ≤ 0.2 |
| FDAS | ≤ 0.2 |
| VHHI | ≤ 0.2 |
| PRVA | ≤ 0.2 |
| YAHL | ≤ 0.2 |
| TDQF | ≤ 0.2 |
| QTNW | 0.243 |

| Variant | one-hybrid fitness for binding NBS DNA |
| --- | --- |
| NVRT | ≤ 0.2 |
| KAAR | ≤ 0.2 |
| KTSD | ≤ 0.2 |
| DHKL | ≤ 0.2 |
| CIPY | ≤ 0.2 |
| MDRT | ≤ 0.2 |
| ASVC | ≤ 0.2 |
| HIEG | ≤ 0.2 |
| TIKG | ≤ 0.2 |
| DRPC | ≤ 0.2 |
| PSSE | ≤ 0.2 |
| VIPQ | ≤ 0.2 |
| SLQD | ≤ 0.2 |
| WKFT | ≤ 0.2 |
| TPVH | ≤ 0.2 |
| WMHC | ≤ 0.2 |
| YRRN | ≤ 0.2 |
| GCDS | ≤ 0.2 |
| LQMG | ≤ 0.2 |
| CYYY | ≤ 0.2 |
| ATHR | ≤ 0.2 |
| TPPN | ≤ 0.2 |
| QDFT | ≤ 0.2 |
| RGDS | ≤ 0.2 |
| GPSP | ≤ 0.2 |
| IAST | ≤ 0.2 |

| Variant | one-hybrid fitness for binding NBS DNA |
| --- | --- |
| IYKC | ≤ 0.2 |
| RYWP | ≤ 0.2 |
| MSHA | ≤ 0.2 |
| AEAP | ≤ 0.2 |
| AIEI | ≤ 0.2 |
| HWHT | ≤ 0.2 |
| VWPT | ≤ 0.2 |
| RYYN | ≤ 0.2 |
| VYDS | ≤ 0.2 |
| FVVE | ≤ 0.2 |
| CWPS | ≤ 0.2 |
| HMCC | ≤ 0.2 |
| WSHF | ≤ 0.2 |
| MLMV | ≤ 0.2 |
| TFQC | ≤ 0.2 |
| ENSM | ≤ 0.2 |
| PLCA | ≤ 0.2 |
| TQGR | ≤ 0.2 |
| CGPL | ≤ 0.2 |
| MAWW | ≤ 0.2 |
| CNYG | ≤ 0.2 |
| CVKF | ≤ 0.2 |
| QQWS | 0.397 |
